Test results as given in the supplement of paper PMC10369915.
This is one part of the list. Cut-off read from the data, not from the text of the source: active = 3.2 or more and inactive = the rest. Only a few entries rise above the background.

Experiments:
Assay in all cases: enrichment score (SH2-bound / input frequency) (ratio); bacterial display of known human phosphotyrosine sites (pTyr-Var adds point mutants) read by sequencing; higher = stronger binding; tyrosines were phosphorylated by kinases first
Conditions in all cases: peptide library: pTyr-Var
SHP2 C-SH2 domain E139D = molecular target: SHP2 C-SH2 domain E139D
[1] = molecular target: SHP2 C-SH2 domain wild-type
SHP2 N-SH2 domain L43F = molecular target: SHP2 N-SH2 domain L43F
SHP2 N-SH2 domain T42A = molecular target: SHP2 N-SH2 domain T42A
SHP2 N-SH2 domain T52S = molecular target: SHP2 N-SH2 domain T52S
[2] = molecular target: SHP2 N-SH2 domain wild-type
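Note: displayed peptides selected on beads carrying the immobilized SH2 domain, with library peptides lacking any tyrosine serving as negative controls.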

Binder | enrichment score (SHP2 C-SH2 domain E139D) | enrichment score [1] | enrichment score (SHP2 N-SH2 domain L43F) | enrichment score (SHP2 N-SH2 domain T42A) | enrichment score (SHP2 N-SH2 domain T52S) | enrichment score [2]
LPPGTYPSDFT [UNC5B_Y511_A516T] | inactive: 0.431 | inactive: 0.57 | inactive: 0.816 | inactive: 0.563 | inactive: 0.632 | inactive: 0.407
LHAAAYWNALA [UQCRC2_Y182_R183W] | inactive: 1.58 | inactive: 1.9 | inactive: 1.56 | inactive: 2.3 | inactive: 1.74 | inactive: 2.07
TPGPNYCPGYN [USH2A_Y463_R464C] | inactive: 0.321 | inactive: 0.451 | inactive: 1 | inactive: 0.614 | inactive: 0.536 | inactive: 0.763
VFDMLYQLANL [USP24_Y1087] | active: 3.21 | inactive: 2.55 | inactive: 2.83 | inactive: 2.35 | inactive: 3.16 | inactive: 2.8
SVIKEYQIRQV [USH2A_Y3623_G3618S] | inactive: 0.84 | inactive: 0.714 | inactive: 0.794 | inactive: 0.815 | inactive: 0.668 | inactive: 0.912
FEDALYTVLHR [UNC13D_Y61_YF] | inactive: 1.05 | inactive: 0.973 | inactive: 1.41 | inactive: 1.04 | inactive: 1.16 | inactive: 1.23
RDIHDYIKHLG [UNC13C_Y308] | inactive: 0.889 | inactive: 0.847 | inactive: 0.763 | inactive: 0.806 | inactive: 0.869 | inactive: 0.867
MVIPNYSSWTE [UROC1_Y185_R188W] | inactive: 1.28 | inactive: 1.03 | inactive: 0.868 | inactive: 1.24 | inactive: 1.17 | inactive: 1.12
QRALLYEDALF [UNC13D_Y56_YF] | inactive: 0.894 | inactive: 0.882 | inactive: 1.14 | inactive: 1.53 | inactive: 1.09 | inactive: 0.959
TPGPNYRPGYN [USH2A_Y463] | inactive: 0.474 | inactive: 0.565 | inactive: 0.552 | inactive: 0.508 | inactive: 0.943 | inactive: 0.771
GADAIYDHVNE [UQCR10_Y44_I47V] | inactive: 0.547 | inactive: 0.526 | inactive: 0.634 | inactive: 0.471 | inactive: 0.515 | inactive: 0.571
EPNSRYTFKLE [USH2A_Y3745_YF] | inactive: 0.799 | inactive: 0.705 | inactive: 0.624 | inactive: 0.663 | inactive: 0.783 | inactive: 0.759
CGQDPYIRELG [UROS_Y19] | inactive: 0.711 | inactive: 1.01 | inactive: 0.881 | inactive: 0.789 | inactive: 0.775 | inactive: 1.38
EEETDYTPVWC [UROD_Y30_G25E] | inactive: 0.676 | inactive: 0.852 | inactive: 0.529 | inactive: 0.77 | inactive: 0.553 | inactive: 1.02
GVIKEYQIRQV [USH2A_Y3623] | inactive: 0.886 | inactive: 0.625 | inactive: 0.757 | inactive: 0.549 | inactive: 0.61 | inactive: 0.784
MVIPNYSSRTE [UROC1_Y185] | inactive: 0.924 | inactive: 0.796 | inactive: 0.929 | inactive: 0.626 | inactive: 1.09 | inactive: 0.969
NFCPGYNNFFN [USH2A_Y467_R464C_YF] | inactive: 1.04 | inactive: 1.16 | inactive: 1.18 | inactive: 1.45 | inactive: 1.11 | inactive: 1.11
VFSSDYFSFVL [USP24_Y2138_YF] | inactive: 0.966 | inactive: 1.07 | inactive: 0.876 | inactive: 0.919 | inactive: 0.78 | inactive: 0.841
KNRDVSSSDYF [USP24_Y2134_Y2134S] | inactive: 0.466 | inactive: 0.437 | inactive: 0.485 | inactive: 0.511 | inactive: 0.4 | inactive: 0.668

Binder | enrichment score (SHP2 C-SH2 domain E139D) | enrichment score [1] | enrichment score (SHP2 N-SH2 domain L43F) | enrichment score (SHP2 N-SH2 domain T42A) | enrichment score (SHP2 N-SH2 domain T52S) | enrichment score [2]
KLKRSYCSPDI [USP8_Y717_S718C] | inactive: 0.835 | inactive: 0.837 | inactive: 0.785 | inactive: 0.621 | inactive: 0.551 | inactive: 0.882
DSILVYQRKEQ [USH2A_Y1909_G1911R] | inactive: 0.687 | inactive: 0.606 | inactive: 0.604 | inactive: 0.446 | inactive: 0.795 | inactive: 0.651
ADLTEYLSTHY [UQCRC1_Y219] | inactive: 0.846 | inactive: 0.775 | inactive: 0.828 | inactive: 0.736 | inactive: 0.893 | inactive: 0.808
NSRFTCKLEVK [USH2A_Y3747_Y3747C_YF] | inactive: 0.797 | inactive: 0.889 | inactive: 0.829 | inactive: 0.655 | inactive: 0.592 | inactive: 1.23
KMTGRYEMYAR [UPB1_Y362] | inactive: 1.11 | inactive: 1.11 | inactive: 1.06 | inactive: 1.1 | inactive: 1.08 | inactive: 0.993
LHAAAYQNALA [UQCRC2_Y182_R183Q] | inactive: 1.51 | inactive: 1.28 | inactive: 1.51 | inactive: 1.12 | inactive: 1.32 | inactive: 1.29
NYCPGYNNFYN [USH2A_Y467_R464C] | inactive: 1.07 | inactive: 1.43 | inactive: 1.07 | inactive: 1.15 | inactive: 1.13 | inactive: 1.26
LPPGTYPSDFA [UNC5B_Y511] | inactive: 0.688 | inactive: 0.789 | inactive: 0.768 | inactive: 0.554 | inactive: 0.691 | inactive: 0.9
KNRDVSSSDFF [USP24_Y2134_Y2134S_YF] | inactive: 0.564 | inactive: 0.59 | inactive: 0.688 | inactive: 0.528 | inactive: 0.543 | inactive: 0.865
KLKRSYSSPDI [USP8_Y717] | inactive: 0.54 | inactive: 0.541 | inactive: 0.775 | inactive: 0.581 | inactive: 0.595 | inactive: 0.614
KMMGRYEMFAR [UPB1_Y362_T359M_YF] | inactive: 1.48 | inactive: 1.24 | inactive: 1.42 | inactive: 1.37 | inactive: 1.56 | inactive: 1.41
ESMQSYDLDFP [UNC13B_Y243_D238E_YF] | inactive: 0.527 | inactive: 0.327 | inactive: 0.436 | inactive: 0.404 | inactive: 0.402 | inactive: 0.508
VYSSDYFSFVL [USP24_Y2138] | inactive: 0.98 | inactive: 0.822 | inactive: 1.04 | inactive: 0.7 | inactive: 0.889 | inactive: 0.863
KDFTIYNPNLL [VANGL1_Y290] | inactive: 1.05 | inactive: 0.885 | inactive: 1.1 | inactive: 0.855 | inactive: 1.06 | inactive: 1.15
FEDTLYTVLHR [UNC13D_Y61_A59T_YF] | inactive: 1.09 | inactive: 1.38 | inactive: 1.23 | inactive: 0.89 | inactive: 1.06 | inactive: 1.82
TTSQPYRRLCS [USH2A_Y534_C536R] | inactive: 0.442 | inactive: 0.422 | inactive: 0.456 | inactive: 0.273 | inactive: 0.501 | inactive: 0.263
GQKTLYSFFSP [UNG_Y8] | inactive: 1.19 | inactive: 1.54 | inactive: 1.19 | inactive: 1.32 | inactive: 1.13 | inactive: 1.19
AHLTEYLSTHF [UQCRC1_Y219_D215H_YF] | inactive: 1.02 | inactive: 1.24 | inactive: 1.05 | inactive: 2.27 | inactive: 1.2 | inactive: 1.1
